From the supplement of paper PMC8728848
Some of the results follow.

What was measured:
Test in all cases: glycan array binding signal (z-score within array); higher = stronger binding
Details in all cases: glycan notation: IUPAC condensed, linker removed
GlcA(b1-3)GlcNAc = target: GlcA(b1-3)GlcNAc
Method in brief: (§1)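 Negative Z-scores can be read as non-binding. The Z-score is calculated within each array and then averaged across arrays of one protein sequence at different concentrations or buffers and across linkers. Arrays, 3228 in all, were curated from the Consortium for Functional Glycomics database and kept only where the protein sequence was available.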

GlcA(b1-6)Gal = target: GlcA(b1-6)Gal
Method in brief: as §1

[1] = target: GlcNAc(a1-3)Gal(b1-4)GlcNAc
Method in brief: as §1

[2] = target: GlcNAc(a1-6)Gal(b1-4)GlcNAc
Method in brief: as §1

[3] = target: GlcNAc(b1-2)Gal(b1-3)GalNAc
Method in brief: as §1

[4] = target: GlcNAc(b1-2)Man(a1-3)[GlcNAc(b1-2)Man(a1-6)]Man(b1-4)GlcNAc(b1-4)GlcNAc
Method in brief: as §1

GlcNAc(b1-3)Gal = target: GlcNAc(b1-3)Gal
Method in brief: as §1

[5] = target: GlcNAc(b1-3)Gal(b1-3)GalNAc
Method in brief: as §1

GlcNAc(b1-3)Gal(b1-4)Glc = target: GlcNAc(b1-3)Gal(b1-4)Glc
Method in brief: as §1

[6] = target: GlcNAc(b1-3)Gal(b1-4)GlcNAc
Method in brief: as §1

[7] = target: GlcNAc(b1-3)Gal(b1-4)GlcNAc(b1-3)Gal(b1-4)GlcNAc
Method in brief: as §1

GlcNAc(b1-3)GalNAc = target: GlcNAc(b1-3)GalNAc
Method in brief: as §1

GlcNAc(b1-3)Man = target: GlcNAc(b1-3)Man
Method in brief: as §1

[8] = target: GlcNAc(b1-3)[GlcNAc(b1-4)][GlcNAc(b1-6)]GlcNAc
Method in brief: as §1

[9] = target: GlcNAc(b1-3)[GlcNAc(b1-6)]Gal(b1-4)GlcNAc
Method in brief: as §1

[10] = target: GlcNAc(b1-3)[GlcNAc(b1-6)]GalNAc
Method in brief: as §1

[11] = target: GlcNAc(b1-4)Gal(b1-4)GlcNAc
Method in brief: as §1

GlcNAc(b1-4)GlcNAc = target: GlcNAc(b1-4)GlcNAc
Method in brief: as §1

[12] = target: GlcNAc(b1-4)GlcNAc(b1-4)GlcNAc
Method in brief: as §1

[13] = target: GlcNAc(b1-4)GlcNAc(b1-4)GlcNAc(b1-4)GlcNAc(b1-4)GlcNAc
Method in brief: as §1

[14] = target: GlcNAc(b1-4)GlcNAc(b1-4)GlcNAc(b1-4)GlcNAc(b1-4)GlcNAc(b1-4)GlcNAc
Method in brief: as §1

[15] = target: GlcNAc(b1-4)[GlcNAc(b1-6)]GalNAc
Method in brief: as §1

[16] = target: GlcNAc(b1-6)Gal(b1-4)GlcNAc
Method in brief: as §1

GlcNAc(b1-6)GalNAc = target: GlcNAc(b1-6)GalNAc
Method in brief: as §1

GlcNAc3Prop(b1-4)GlcNAc = target: GlcNAc3Prop(b1-4)GlcNAc
Method in brief: as §1

Kdn(a2-3)Gal(b1-3)GlcNAc = target: Kdn(a2-3)Gal(b1-3)GlcNAc
Method in brief: as §1

Kdn(a2-3)Gal(b1-4)GlcNAc = target: Kdn(a2-3)Gal(b1-4)GlcNAc
Method in brief: as §1

[17] = target: Man(a1-2)Man(a1-2)Man(a1-3)Man
Method in brief: as §1

[18] = target: Man(a1-2)Man(a1-2)Man(a1-6)[Man(a1-3)]Man
Method in brief: as §1

Man(a1-2)Man(a1-3)Man = target: Man(a1-2)Man(a1-3)Man
Method in brief: as §1

[19] = target: Man(a1-2)Man(a1-3)[Man(a1-2)Man(a1-6)]Man
Method in brief: as §1

[20] = target: Man(a1-2)Man(a1-3)[Man(a1-2)Man(a1-6)]Man(a1-6)[Man(a1-2)Man(a1-2)Man(a1-3)]Man
Method in brief: as §1

[21] = target: Man(a1-2)Man(a1-3)[Man(a1-2)Man(a1-6)]Man(a1-6)[Man(a1-2)Man(a1-2)Man(a1-3)]Man(b1-4)GlcNAc(b1-4)GlcNAc
Method in brief: as §1

[22] = target: Man(a1-2)Man(a1-3)[Man(a1-6)]Man(a1-6)[Man(a1-2)Man(a1-3)]Man(b1-4)GlcNAc(b1-4)GlcNAc
Method in brief: as §1

[23] = target: Man(a1-2)Man(a1-6)[Man(a1-3)]Man(a1-6)[Man(a1-2)Man(a1-2)Man(a1-3)]Man
Method in brief: as §1

[24] = target: Man(a1-2)Man(a1-6)[Man(a1-3)]Man(a1-6)[Man(a1-2)Man(a1-2)Man(a1-3)]Man(b1-4)GlcNAc(b1-4)GlcNAc
Method in brief: as §1

Man(a1-3)[Man(a1-6)]Man = target: Man(a1-3)[Man(a1-6)]Man
Method in brief: as §1

B1: SLR2P2A3 (Tachypleus tridentatus), TAL2_TACTR (protein)
chain: MEKGTPPTHDSDNWMGRAKKIGNGGWNQFQFLFFDPNGYLYAVSKDKLYKASPPQSDTDNWIARATEIGSGGWSGSKFLFFHPNGYLYAVHGQRLYKALPPVSNQD
- glycan array binding signal (z-score) (GlcA(b1-3)GlcNAc): 0.168
- glycan array binding signal (z-score) (GlcA(b1-6)Gal): -0.493
- glycan array binding signal (z-score) [1]: 5.44
- glycan array binding signal (z-score) [2]: 6.84
- glycan array binding signal (z-score) [3]: -0.506
- glycan array binding signal (z-score) [4]: -0.274
- glycan array binding signal (z-score) (GlcNAc(b1-3)Gal): -0.35
- glycan array binding signal (z-score) [5]: 0.326
- glycan array binding signal (z-score) (GlcNAc(b1-3)Gal(b1-4)Glc): 5.09
- glycan array binding signal (z-score) [6]: -0.172
- glycan array binding signal (z-score) [7]: -0.322
- glycan array binding signal (z-score) (GlcNAc(b1-3)GalNAc): -0.341
- glycan array binding signal (z-score) (GlcNAc(b1-3)Man): -0.18
- glycan array binding signal (z-score) [8]: -0.089
- glycan array binding signal (z-score) [9]: -0.296
- glycan array binding signal (z-score) [10]: -0.094
- glycan array binding signal (z-score) [11]: -0.305
- glycan array binding signal (z-score) (GlcNAc(b1-4)GlcNAc): -0.18
- glycan array binding signal (z-score) [12]: -0.129
- glycan array binding signal (z-score) [13]: -0.041
- glycan array binding signal (z-score) [14]: 0.174
- glycan array binding signal (z-score) [15]: -0.545
- glycan array binding signal (z-score) [16]: -0.321
- glycan array binding signal (z-score) (GlcNAc(b1-6)GalNAc): 3.83
- glycan array binding signal (z-score) (GlcNAc3Prop(b1-4)GlcNAc): -0.508
- glycan array binding signal (z-score) (Kdn(a2-3)Gal(b1-3)GlcNAc): -0.164
- glycan array binding signal (z-score) (Kdn(a2-3)Gal(b1-4)GlcNAc): -0.323
- glycan array binding signal (z-score) [17]: -0.363
- glycan array binding signal (z-score) [18]: -0.339
- glycan array binding signal (z-score) (Man(a1-2)Man(a1-3)Man): -0.223
- glycan array binding signal (z-score) [19]: -0.503
- glycan array binding signal (z-score) [20]: -0.165
- glycan array binding signal (z-score) [21]: 0.218
- glycan array binding signal (z-score) [22]: -0.177
- glycan array binding signal (z-score) [23]: 0.185
- glycan array binding signal (z-score) [24]: -0.413
- glycan array binding signal (z-score) (Man(a1-3)[Man(a1-6)]Man): -0.503
